Reference: publication PMC12136788
Changes are numbered by the printed parent chain. This is one part of the list.

B1: chr11:48615247:48615248:+_ENSMUSG00000020372_ENSMUST00000020640|perfect_dup|FALSE|FALSE (ssRNA)
RNA: GGGAGUUCUACAGUCCGACGAUCUCCGUCCCAGGAGCCCGAGAGGGCAAACUGACCAUCAGAGGAGAUAACAACAUCACUAACGAAGUGGGAGUGACCUCUCAGAGCACGCUGUGGUAUGCCAUAGUUGGUCUCAUCUCUGGUCAACAGAGGAUUGAGCAUCA
B2: 37390388_37391763_1001_3pUTR_ENSG00000134138_ENST00000382766|human|control|control (ssRNA)
RNA: GGGAGUUCUACAGUCCGACGAUCCAGCUCAUCGUACCUUUGCGCCAUCAGUCUGCGCUCCAAUAAACUCCUGGAUGUGUCGUAUAUUUAAUAUCCCAGUCCGGAUAAGAAAGUGAUCUAGGCUGAAGAUUCCUUUUUUUUUUUCAACAGAGGAUUGAGCAUCA
B3: chr5:37680062:37680063:+_ENSMUSG00000029121_ENSMUST00000031004|mus_hu|mus_mus_mus_hu_False|78_78 (ssRNA)
RNA: GGGAGUUCUACAGUCCGACGAUCUUUGGGUGUAGCUGGUACCUCGUACACAGGACCAUCGUACAUGCCCCUGGAAACCCCUUGCAAUCCAAAAACCUUAUUCCUGAUUUUGACGCGCUGGUACAGGUGCUCCGGGAACGCCUUCAACAGAGGAUUGAGCAUCA
B4: chr18:59894552:59894553:+_ENSG00000134444_ENST00000256858|hu_hu|motif|central (ssRNA)
RNA: GGGAGUUCUACAGUCCGACGAUCUUGAUGAUUUCCAAAAUCCCGGUAGAGUUGCAAUAAGUCUGGAGGUUUUGGAAUGUUUAAUCCGGCAUCAUCCCAUAAUUCAAAAUCCUGAUCAUCGUUUUCAUCUGAAAAGGUUAUUGACAACAGAGGAUUGAGCAUCA
B5: chrX:71549762:71549763:+_ENSMUSG00000019087_ENSMUST00000019231|mus_mus|mus_mus_mus_hu_False|98_108 (ssRNA)
RNA: GGGAGUUCUACAGUCCGACGAUCAAAGUGUACCACUCACUCUUAACAGCACAACAUCACCAGAAAACGAUAACGACAGCCAAGCAGGACAGACAGUUAAGUAGUACUUCCACACUCCCAAACUCAGGGAGCCCUAUAACCUUACAACAGAGGAUUGAGCAUCA
B6: chr2:210598762:210598763:+_ENSG00000078018_ENST00000392194|hu_hu|FALSE|FALSE (ssRNA)
RNA: GGGAGUUCUACAGUCCGACGAUCCAAAACAAUCACUAUACAGCAACAAAUACAUUUGCAAAUUUGAUUGAAAAACAUGAACUAACUACAACCAGCCAUUGAAGAAAUGCCUUUCUAUGGUAACAGGCUCUAGAAUUAUCAGAACAACAGAGGAUUGAGCAUCA
B7: chr9:15127005:15127006:-_ENSMUSG00000046111_ENSMUST00000161132|mus_mus|motif|central (ssRNA)
RNA: GGGAGUUCUACAGUCCGACGAUCCCAGAUUGGAAUAGGGCUCCGAAAUGGACAGGAUUUUAAUAUGUGCUCUGCUUGUGCGGGCUGACAUACAUUUCCUACAGCUUCUGUAGUGUCAGUUUCAAUGAAGUUCUGAAUUGGCUUCAACAGAGGAUUGAGCAUCA
B8: chr4:25749455:25749456:-_ENSG00000091490_ENST00000264868|hu_hu|hu_hu_hu_mus_False|38_108 (ssRNA)
RNA: GGGAGUUCUACAGUCCGACGAUCGCAAGCACUAGGAUAGAAAAAUCCACAGGGGGAAAAAAUGUAAACCAAUGUACAAUGUUAUCGCCUUCCCUGUAUUUCCAGGCUUUGUCUCAAGGCUCCUUCUAGCUGCUGGAUUUGGGACAACAGAGGAUUGAGCAUCA
B9: chr2:73656703:73656704:-_ENSMUSG00000027104_ENSMUST00000100009|mus_mus|FALSE|FALSE (ssRNA)
RNA: GGGAGUUCUACAGUCCGACGAUCAAGAAAUGGAAGUGGGAAGAGUGAUUCAGUAACACCCCCAUUUAUUAAGAUGCCACUAAAUCAAAGUGAAAUCAACCACAAUGAGUUAUGAUACAAUUUACACAUUGAGCACAGGAAAAUCAACAGAGGAUUGAGCAUCA
B10: chr12:21796937:21796938:-_ENSG00000111716_ENST00000350669|hu_hu|FALSE|FALSE (ssRNA)
RNA: GGGAGUUCUACAGUCCGACGAUCCACAAUUAUGAUGCAAUCAGGACUGUACUUGACGAUCUGAGGAAUAAUGAAUUUGAAGACAUUAACAUUUCUCUGCACCAGAUUGAGCCGACUCUCCCCUUCUUGCUGACGGACUCCUGCCAACAGAGGAUUGAGCAUCA
B11: 107528239_107528359_927_CDS_ENSMUSG00000028613_ENSMUST00000106731|mouse|control|control (ssRNA)
RNA: GGGAGUUCUACAGUCCGACGAUCAAGAGAGUACAGCGGCGGCGUCCAUCGGUUGUGGCCACUGAGAUGGUCUUAUUGCCUGAGUCUGUCCAGUAGAUGUGCUUAUGGACCCAGUCCACCGCCAGGCCCUCCGGGGAGUGCAGCCAACAGAGGAUUGAGCAUCA
B12: chr18:3457883:3457884:+_ENSG00000177426_ENST00000400167|hu_hu|FALSE|FALSE (ssRNA)
RNA: GGGAGUUCUACAGUCCGACGAUCGGGUUAAGCUGUAAGUUUUGCCUGAAGCUCCAUCUCUGCAGCCCGUUUGAGUGCAACAUCCACUAGAAGCUGAAAUCCACUGAAGUCCUGGUUGAGGUCCGGUGGAGUAGGGGGAGGAGUCAACAGAGGAUUGAGCAUCA
B13: 83885755_83889540_1110_CDS_ENSG00000013375_ENST00000513973|human|control|control (ssRNA)
RNA: GGGAGUUCUACAGUCCGACGAUCAGUCUUAGUGCAAUAGACAGGUACCUUCAUAACUUCUUCAAGAUACCGUGUUGAACUUCCAUUUGCAUAUGCAGUUUGUACAACACCAAUAUUCAAACUUUCUCCAAUCUCCACCAGGAGCAACAGAGGAUUGAGCAUCA
B14: chr16:16330038:16330039:-_ENSMUSG00000022789_ENSMUST00000023477|mus_hu|FALSE|FALSE (ssRNA)
RNA: GGGAGUUCUACAGUCCGACGAUCACUUUUAUCAUCCACGGGUUCACCGUAGCUAUUUAGAAGAGACUGAUACUGAGCAGCUAGAACAUUUAUUCUUGUUUUCAACUCUGGUAAACAAUCUCUGAUGUGAUGCAUCAGUAACCUCAACAGAGGAUUGAGCAUCA
B15: chr5:71490574:71490575:+_ENSG00000131711_ENST00000296755|hu_hu|FALSE|FALSE (ssRNA)
RNA: GGGAGUUCUACAGUCCGACGAUCUUUCUCCGCAGGGUUUGCUGGAUGCCACACAAUCAAAGAUGAGACUGAAGUUAAGUAGGAAAUCGGGAGAUCUACUUCUUGACCAUUAGGCAGAAUGAAUUCAGCCUUGUCUUUGUUGGUCAACAGAGGAUUGAGCAUCA
B16: 118767367_118771021_1249_CDS_ENSG00000125354_ENST00000354416|human|control|control (ssRNA)
RNA: GGGAGUUCUACAGUCCGACGAUCCUGGACGAACAUCUGUCUCAUCUCCUCUUCUUUUUUCUGGAGUUCCCCUAGGAACUCGUUCCUUUUGGCCUCAUAUGUCUCCUGUAAACUGAAGGGUUUGCUGUCAGGGUCGGUGUCCUUCAACAGAGGAUUGAGCAUCA
B17: chr7:65705844:65705845:+_ENSG00000169902_ENST00000304842|hu_mus|hu_hu_hu_mus_False|58_68 (ssRNA)
RNA: GGGAGUUCUACAGUCCGACGAUCAAACGGAUCUUUGUUACAUAAAUAAGGUGCCGGCUCCCCAUGUUUAACGAUAAUUUCUAGUAAGAAGGCUUGCAUGGCAGAAUCUAGCACUUCAUCUGUGACACCCGCCUCAUCCAAGCGCAACAGAGGAUUGAGCAUCA
B18: 108159075_108159195_1344_CDS_ENSMUSG00000034610_ENSMUST00000043368|mouse|control|control (ssRNA)
RNA: GGGAGUUCUACAGUCCGACGAUCUUCUAGACGUUCUUCUGCUUGUUUCAAGCCUAGCCUCUGCUCAGGUGUCAAAGCAGAUUCAUCUAUUACAGUGGCAUUUUCUAAAUAGUCCAUCUCAGAAGAAUUUUCUUUGUUAGAUUCCAACAGAGGAUUGAGCAUCA
B19: chr3:9412954:9412955:+_ENSG00000134077_ENST00000452837|hu_mus|hu_hu_hu_mus_False|18_18 (ssRNA)
RNA: GGGAGUUCUACAGUCCGACGAUCGGUUGAUAUCUCUUCUUUGAUGGCUGGAUUUUCAUAAUAGUCCAAGAUAUGUGAAUCUGAAGUGCUGCUGGCAUGCUUUUUCUUACCAUCUUUCUGAUCGAUUUUGUCUCCUUGUCCACACAACAGAGGAUUGAGCAUCA
B20: chr13:45008927:45008928:-_ENSG00000102804_ENST00000261489|perfect_dup|FALSE|FALSE (ssRNA)
RNA: GGGAGUUCUACAGUCCGACGAUCCGGACUGGCCAGCGUCUUCAGCAGAUUGUUCUCCUGCUCCAGCUGGGAGUUUUUCUCUAUUAGUUCUUUGAUCUGCUCCUUCAGAACUUCCACUUCCUCCCUCACCGCAUACAUCAAAUGCAACAGAGGAUUGAGCAUCA
B21: 4396501_4396621_516_3pUTR_ENSMUSG00000054611_ENSMUST00000075856|mouse|control|control (ssRNA)
RNA: GGGAGUUCUACAGUCCGACGAUCUCCGAGGCGUCAGGGAAGCAAGACCACUCGGCUACUCCCCCAAGCUGGCGGUCAGCAGCCCCAGCCCGAGACCCGGGUCAACCGGGCCGCGGGAAACACCCUCCUCUCGGUACCCUCAGCCAACAGAGGAUUGAGCAUCA
B22: chr16:16330038:16330039:-_ENSMUSG00000022789_ENSMUST00000023477|mus_hu|motif|central (ssRNA)
RNA: B14 RNA with U81G, A82G

These binders were tested against T1, UNK ZnF1-3 (human, UniProt Q9C0B0 31-174) (assay: nsRBNS (natural sequence RNA bind-n-seq); RBNS binding buffer (assumed for nsRBNS): 25 mM Tris pH 7.5, 150 mM KCl, 3 mM MgCl2, 0.01% Triton X-100, 500 ug/ml BSA, 20 U/ml SUPERase-In, 4 C; UNK is unkempt and MSI1 is Musashi-1; names of the RNAs are library labels; protein concentration not given here; high values mean tight binding).
T1 sequence: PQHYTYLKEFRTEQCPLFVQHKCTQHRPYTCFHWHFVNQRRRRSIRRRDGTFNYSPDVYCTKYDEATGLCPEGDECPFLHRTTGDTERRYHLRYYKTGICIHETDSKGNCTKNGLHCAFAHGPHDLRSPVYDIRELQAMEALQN

| Binder | binding signal |
| --- | --- |
| B1 | 1.14 enrichment R |
| B2 | 0.752 enrichment R |
| B3 | 0.683 enrichment R |
| B4 | 0.569 enrichment R |
| B5 | 1.67 enrichment R |
| B6 | 1.1 enrichment R |
| B7 | 0.651 enrichment R |
| B8 | 1.45 enrichment R |
| B9 | 1.29 enrichment R |
| B10 | 1.6 enrichment R |
| B11 | 0.618 enrichment R |
| B12 | 1.21 enrichment R |
| B13 | 0.816 enrichment R |
| B14 | 0.845 enrichment R |
| B15 | 1.14 enrichment R |
| B16 | 0.593 enrichment R |
| B17 | 0.598 enrichment R |
| B18 | 0.282 enrichment R |
| B19 | 0.416 enrichment R |
| B20 | 1.03 enrichment R |
| B21 | 0.741 enrichment R |
| B22 | 0.865 enrichment R |
